These results are taken from paper PMC12136788.

Some of the results follow.

The labels stand for the following.
T1: UNK ZnF1-6 (called full-length) (human, UniProt Q9C0B0 30-357)
T1 sequence: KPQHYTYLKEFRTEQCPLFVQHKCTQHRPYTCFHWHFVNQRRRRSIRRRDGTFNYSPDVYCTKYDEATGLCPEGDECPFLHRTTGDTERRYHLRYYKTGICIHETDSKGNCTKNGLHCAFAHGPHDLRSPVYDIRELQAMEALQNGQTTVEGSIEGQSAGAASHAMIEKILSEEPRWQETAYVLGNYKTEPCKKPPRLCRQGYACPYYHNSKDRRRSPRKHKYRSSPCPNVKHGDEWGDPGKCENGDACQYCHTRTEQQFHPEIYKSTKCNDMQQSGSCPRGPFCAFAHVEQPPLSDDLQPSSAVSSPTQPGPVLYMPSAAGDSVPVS

B1: chr15:93027272:93027374:+|3pUTR|ENSG00000173575|unk|total|mutant (ssRNA)
RNA: GGGAGUUCUACAGUCCGACGAUCCCAGGAAUCUGUGAGGAUGGUAUUCCCUGGAGUCUGGCUUUGAAAGAUUUCAUUGUUGGCCGAAAUAACAGGUUGAGAAAGAGGGAGUCCGCAUCACCUAAAACCUGCACGUGAACAAGGCAACAGAGGAUUGAGCAUCA
B2: ENSG00000013374:stop:overlap|stop_codon|ENSG00000013374|stop_codon|NA|stop_codon (ssRNA)
RNA: GGGAGUUCUACAGUCCGACGAUCAAAGAAAAGAAUAUGGAAUAGCCUUGCCAUGUCUGUUGGACGCUGACAAAUAUUUCUGGUAGGCGCUUUUGUACUUGGUGAACACCAGCUUUAAGGAAGAUGGCCCAGACUAUACAGAACCAACAGAGGAUUGAGCAUCA
B3: chr15:52550718:52550819:-|3pUTR|ENSG00000128989|msi1|FALSE|unique (ssRNA)
RNA: GGGAGUUCUACAGUCCGACGAUCUUUAUAUAAACUUUUUAAAUGUAGAAACUUUUUACUUCCACACUCAGUUUUGGAGACCCUAGAAUAAAAGGCUUCAAUACUCUGCAUUCCAUGCCCUCUGCCACCUGCUUUUUUUUCCCCCAACAGAGGAUUGAGCAUCA
B4: chr17:58090057:58090109:+|3pUTR|ENSG00000264364|msi1_unk|total|mutant (ssRNA)
RNA: GGGAGUUCUACAGUCCGACGAUCGGGCCGGAUCCGCUUGAAUCUUUUUUUUCUUUACAUUUUUCUCCUGUCUGCUCCCUGCUCCGCCCUCAGUUUCCUCAUUCCUCUGGAGUUCUCUCCGAGCAGCCCCUGUUGUCCGUUGGCCAACAGAGGAUUGAGCAUCA
B5: chr15:93024873:93024975:+|3pUTR|ENSG00000173575|unk|total|mutant (ssRNA)
RNA: GGGAGUUCUACAGUCCGACGAUCGGUCCAGCUCUGAUUCGGGUCACCACUCCUGCACUUUGGCACCCCAUCCCAUUCCAGCCCCGUUCUGGCCUCCCACUUUGACGGGCACUUGGAGGAGGAGCUGACUGUGUGUGUACCAGCCAACAGAGGAUUGAGCAUCA
B6: chr9:128390415:128390516:+|3pUTR|ENSG00000167118|msi1|total|mutant (ssRNA)
RNA: GGGAGUUCUACAGUCCGACGAUCCUUACAGCUCAUUCUGCUGGGGGCCGAGAUGAGGGGAGGGAGUAAGUUAAACCUUGGACCCGCAAGCCGAAGCCUGGGGGGAUGCGUGUGCCUCAGUUUCCUCCUCCACAACUGAAUAUACAACAGAGGAUUGAGCAUCA
B7: chr4:15962460:15963129:-|CDS|ENSG00000137441|control|control|control (ssRNA)
RNA: GGGAGUUCUACAGUCCGACGAUCAAUCAAGCCCUGCAGGAGCUGAGGCGCCUUCACCAUGCGUGCCAGGGGGCCCCGGUGCUUAGGCCAUCCGUGUGCAGGGAGGCUGGACCCCAGGCCCAUAUGCAGCAGGUGACUUCCAGCCAACAGAGGAUUGAGCAUCA
B8: chr16:2586768:2586869:+|CDS|ENSG00000140992|unk|FALSE|bound_elsewhere (ssRNA)
RNA: GGGAGUUCUACAGUCCGACGAUCCUCCUCACACUCCCUGUCAGCCUCCGACACGGGCCUGCCCCAGAGGUCAGGCAGCAACAUAGAGCAGUACAUUCACGAUCUGGACUCGAACUCCUUUGAACUGGACUUACAGUUUUCCGACAACAGAGGAUUGAGCAUCA
B9: chr14:51255895:51255996:+|3pUTR|ENSG00000139921|msi1_unk|total|mutant (ssRNA)
RNA: GGGAGUUCUACAGUCCGACGAUCGUGAAUCCAUCCGAUUUACAGUAUCGUAAUAUACAAGUUUUCUUUAAAGCCCUCUCCUUCCGAAUUUAAAAUAUUGUACCAUUGAAGAGUUUGGAUGUGUAACUUGUGAUGCCUCCGAAACAACAGAGGAUUGAGCAUCA
B10: chr18:67512643:67512744:-|CDS|ENSG00000171451|unk|FALSE|bound_elsewhere (ssRNA)
RNA: GGGAGUUCUACAGUCCGACGAUCGCCAUGAUGGAUGUGUGGGAUGCACAUUACAAAAUGUUUUGGUUUGAUCAUCAUGGCAAUAGUCCCAUGGCCAGUAUACAGGAAGCAGAGCAAGCUGCUGAAUUUAAAAAACGAUGGACUCAACAGAGGAUUGAGCAUCA
B11: chr1:231019617:231019718:-|3pUTR|ENSG00000182118|msi1|total|mutant (ssRNA)
RNA: GGGAGUUCUACAGUCCGACGAUCGCAGGGAGUUCUCCGCGGAUGCAUGGUGGCAGUCUGCUUUGAUGGCAGCAGUUUCUGCUCCGGUGACCCCGAGGUCCUCAGCAGUAUCCUCCACACCUAUUUAUUGAGGUGCACCUGCUGCAACAGAGGAUUGAGCAUCA
B12: chr16:57471571:57471634:+|3pUTR|ENSG00000102978|msi1_unk|FALSE|overlapping (ssRNA)
RNA: GGGAGUUCUACAGUCCGACGAUCAUAGCCUUUAUUCAGGGGGCCUAUAAACCCUUCCAGUUCUUGCCCCAGGGCUGGCCUGCUAGCGCUUCAAAUUCCCAGGUGUCCCUAAUUUGAGAAGUAACCUUUUGGAAUAGCAUUAGACAACAGAGGAUUGAGCAUCA
B13: chr11:11963431:11963477:-|3pUTR|ENSG00000050165|msi1_unk|FALSE|overlapping (ssRNA)
RNA: GGGAGUUCUACAGUCCGACGAUCUUGACACUGUCCCUCUUUGGCAGUUGCAUUAGUAACUUUGAAAGGUAUAUGACUGAGCGUAGCAUACAGGUUAACCUGCAGAAACAGUACUUAGGUAAUUGUAGGGCGAGGAUUAUAAAUCAACAGAGGAUUGAGCAUCA
B14: chr19:5558166:5561399:-|three_prime_utr|ENSG00000223573|control|control|control (ssRNA)
RNA: GGGAGUUCUACAGUCCGACGAUCCCAGCUGAUGCACACUGCUUCAGACACUCCUGCUGGAGCCCCAGUCCCUGACAAGGACCUAGGACAUUUUUGCUCCUGCCCAGCCUAUCGGGAGGGAGCCUUGAGCCUUUCAGCUCUGCUCAACAGAGGAUUGAGCAUCA

The experiment addresses T1, UNK ZnF1-6 (called full-length). Kind of experiment: nsRBNS (natural sequence RNA bind-n-seq); RBNS binding buffer (assumed for nsRBNS): 25 mM Tris pH 7.5, 150 mM KCl, 3 mM MgCl2, 0.01% Triton X-100, 500 ug/ml BSA, 20 U/ml SUPERase-In, 4 C; UNK is unkempt and MSI1 is Musashi-1; names of the RNAs are library labels; protein concentration not given here; high values mean tight binding.
For the molecule B1, the binding signal turned out to be 0.486 enrichment R.

Take B2: the binding signal was determined as 2.66 enrichment R.

On to B3, for which the binding signal amounted to 3.77 enrichment R.

B4 gave a binding signal of 1.37 enrichment R.

B5 came in with a binding signal of 4.11 enrichment R.

On to B6, for which the binding signal was found to be 1.04 enrichment R.

On to B7, for which the binding signal turned out to be 0.848 enrichment R.

B8 returned a binding signal of 1.14 enrichment R.

B9 gave a binding signal of 0.408 enrichment R.

As for B10, the binding signal came out at 0.616 enrichment R.

Regarding B11, the binding signal came to 0.754 enrichment R.

Molecule B12 had a binding signal of 1.94 enrichment R.

B13 displayed a binding signal of 0.884 enrichment R.

Regarding B14, the binding signal is 0.786 enrichment R.
